Results reported in the antibiotic and cytotoxicity screens of Wong et al. (2023).
This is one part of the list.

System: HSkMC (human skeletal muscle cells)
Assay: cytotoxicity call (relative viability < 0.9)
Conditions: 10 µM

**Q.** For `C[C@@H]1CN([C@@H](C)CO)C(=O)c2cc(C#CCc3ccccc3)cnc2O[C@@H]1CN(C)C(=O)Cc1cccnc1`, which cytotoxicity call is on record?
**A.** inactive

**Q.** Which cytotoxicity call does the source give for `Cc1ccc(S(=O)(=O)Nc2ccc3c(c2)CC(=O)N([C@H](C)CO)C[C@H](C)[C@H](CN(C)S(=O)(=O)c2cn(C)cn2)O3)cc1` here?
**A.** inactive

**Q.** How did the cytotoxicity call turn out when `CC(C)c1noc(CNC(=O)CN)n1` was run?
**A.** inactive

**Q.** For `C[C@@H]1CN([C@@H](C)CO)C(=O)c2cccc(NC(=O)Nc3cccc4ccccc34)c2O[C@H]1CN(C)C(=O)Nc1ccc2c(c1)OCO2`, which cytotoxicity call is on record?
**A.** inactive

**Q.** For `C[C@H](CO)N1C[C@H](C)[C@@H](CN(C)S(C)(=O)=O)OCc2cn(nn2)CCCC1=O`, which cytotoxicity call is on record?
**A.** inactive

**Q.** How did the cytotoxicity call turn out when `C[C@@H]1CN([C@@H](C)CO)C(=O)c2cc(-c3ccc(F)cc3)cnc2O[C@H]1CN(C)C(=O)Cc1ccccn1` was run?
**A.** inactive

**Q.** With `C[C@@H]1CN([C@@H](C)CO)C(=O)CCCn2nncc2CO[C@@H]1CN(C)C(=O)Nc1ccc(C(F)(F)F)cc1` as the molecule, how does the cytotoxicity call read?
**A.** inactive

**Q.** How did the cytotoxicity call turn out when `Cc1noc(C)c1NC(=O)Nc1ccc2c(c1)CC(=O)N([C@H](C)CO)C[C@H](C)[C@@H](CN(C)S(=O)(=O)c1cccs1)O2` was run?
**A.** inactive

**Q.** `NNC(=O)[C@H]1C[C@H]2C[C@@H]1C[C@@H]2C(=O)NN` was tested. Which cytotoxicity call did it give?
**A.** inactive

**Q.** How did the cytotoxicity call turn out when `C[C@H](O)C#Cc1ccc2c(c1)O[C@@H](CN(C)C(=O)C1CCCCC1)[C@H](C)CN([C@@H](C)CO)S2(=O)=O` was run?
**A.** inactive

**Q.** For `C[C@@H]1CN([C@@H](C)CO)C(=O)c2cc(NC(=O)Nc3cccc4ccccc34)ccc2O[C@H]1CN(C)C(=O)Nc1ccc2c(c1)OCO2`, which cytotoxicity call is on record?
**A.** inactive

**Q.** With `C[C@H](CO)N1C[C@H](C)[C@H](CN(C)Cc2ccc(Cl)c(Cl)c2)Oc2ccc(NC(=O)Cn3cnnn3)cc2CC1=O` as the molecule, how does the cytotoxicity call read?
**A.** inactive
